Consider 44 sequences from the supplement of paper PMC11417369.

This is one part of the list.

The test system of this test is PfAP2-HC AP2 domain (GST-tagged). Kind of test: gcPBM binding intensity (ln(normalized median fluorescence intensity)); higher = stronger DNA binding. The method in brief:
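Alexa488 anti-GST antibody, scanned at 488 nm, detected GST-tagged P. falciparum DNA-binding domains that had been expressed in E. coli and incubated for 1 h on an Agilent 4 × 180k array. The array carried primer-extended double-stranded 36-bp intergenic genomic probes and negative controls. Binding intensity is the highest Masliner-normalised natural-log median intensity across replicate spots of either orientation of each probe.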
Turning to “TATATACATAAAATTTGTACATATATATATATATAT [XGTACX_site3214]”, the “gcPBM binding intensity (ln)” value is 9.83.

With “TATTATATCTTATATGTATATTCCCACAAATTATAT [GTGCAC_negctrl_site362]”, the “gcPBM binding intensity (ln)” value amounted to 9.59.

Regarding “AATATATAAACACGTACACACACATATATGTATATA [CACACA_site9168]”, the “gcPBM binding intensity (ln)” value is 10.3.

In the case of “AATTTAAATATTTGTTGTACGTATTTATATATTCTT [XGTACX_site3623]”, the “gcPBM binding intensity (ln)” value turned out to be 9.79.

Consider “CATGCCGTTAAATTATGTACTTATTATTTTAATATG [XGTACX_site4209]”, for which the “gcPBM binding intensity (ln)” value came to 9.64.

In the case of “ATAATATATAAACACACACACATATATAAATACATT [CACACA_site4466]”, the “gcPBM binding intensity (ln)” value was determined as 10.5.

Consider “TGGCAAAATAGGCACACACACATATACATATATATT [CACACA_site1059]”, for which the “gcPBM binding intensity (ln)” value was 10.3.

As for “TATATAATTAAAATAACACACATATATAAAAATATA [CACACA_site2990]”, the “gcPBM binding intensity (ln)” value turned out to be 9.94.

Turning to “ATATTATAGTATATAACACACATTTTTCATAACACT [CACACA_site6331]”, the “gcPBM binding intensity (ln)” value was determined as 9.83.

As to “TTTTTTTCTTTTTGAGGTACGCATTATTTTATTTGT [XGTACX_site6996]”, the “gcPBM binding intensity (ln)” value was determined as 9.6.

Turning to “ATAATTTGATGGTTAACACACATATAGATTATAGAT [CACACA_site7200]”, the “gcPBM binding intensity (ln)” value is 9.86.

With “TTATTATATATATCTCGTACGTGTATACGCCTACCA [XGTACX_site8375]”, the “gcPBM binding intensity (ln)” value was 9.5.

Regarding “TGTTATATTTCAAATTGTACTAATCTAATTAATAAA [XGTACX_site604]”, the “gcPBM binding intensity (ln)” value turned out to be 9.18.

“AAAAAAATGAAACACACACACACATATATATATATA [CACACA_site1043]”: the “gcPBM binding intensity (ln)” value was 10.4.

As for “ACAAAGTTTATAGAACGTACATACTTACACATATTT [XGTACX_site556]”, the “gcPBM binding intensity (ln)” value worked out at 9.73.

On to “AAACAATTACACATATGTATGTATATATATATATAT [TGCATGCA_negctrl_site536]”, for which the “gcPBM binding intensity (ln)” value is 9.68.

As for “TTGATATTTTTTTTATGTACACATGTTCATATTTTT [XGTACX_site8095]”, the “gcPBM binding intensity (ln)” value is 9.86.

As to “TCATCTTTTATATGTTGTACGTATTTTCATTTATAT [XGTACX_site4855]”, the “gcPBM binding intensity (ln)” value was determined as 10.1.

As to “ATTTAAAAAAGAAAGGTGCATTTCAATAATGTAAAA [GTGCAC_site9585]”, the “gcPBM binding intensity (ln)” value is 9.51.

“AAGTAGTGTTAATACTGTACTTATATTTTTTATTAT [XGTACX_site8264]”: the “gcPBM binding intensity (ln)” value came out at 9.65.

As to “TCACATATTATCTTTACACACTATAAATAAGTTTTA [CACACA_site7335]”, the “gcPBM binding intensity (ln)” value was 9.69.

For the sequence “TATACTTCTTATTAAATGAGTAGTATATATTATATA [TGCATGCA_negctrl_site299]”, the “gcPBM binding intensity (ln)” value was 9.49.

In the case of “CTATTTCATAAACACACACACACAAACAAACATATA [CACACA_site8234]”, the “gcPBM binding intensity (ln)” value turned out to be 11.5.

As for “AAAGATTGCGATGGTTGTACTTTTCTATATTTTTTT [XGTACX_site3492]”, the “gcPBM binding intensity (ln)” value was found to be 9.88.

On to “CTAAAATACGAACACACACACACATATAAATAAATA [CACACA_site7872]”, for which the “gcPBM binding intensity (ln)” value came out at 11.2.

Take “AAGTACAAATTTAATAAAAATGAAACAAATATGTAT [TGCATGCA_negctrl_site94]”: the “gcPBM binding intensity (ln)” value was 9.77.

Consider “TTTTTTAAAAGAAAATAAAAAATAAGCATAATATGA [CACACA_negctrl_site1574]”, for which the “gcPBM binding intensity (ln)” value was 9.34.

In the case of “AAGGTGGAAACAATTACACACACACTAATAAAAAAA [CACACA_site9051]”, the “gcPBM binding intensity (ln)” value was found to be 10.8.

As for “AAGGGTTATTTGATATGTACTTATATATATATATAA [XGTACX_site1659]”, the “gcPBM binding intensity (ln)” value worked out at 9.86.

Consider “AAATTAAAAAAGAATATACACACCAAAACTGTTTGT [CACACA_site958]”, for which the “gcPBM binding intensity (ln)” value was 9.82.

For “ACCATACATACATACACACACACACGCATATTTATA [CACACA_site7386]”, the “gcPBM binding intensity (ln)” value turned out to be 11.2.

As for “TAATTTTAAATATCTTCACACATTATATTTTTATAT [CACACA_site5411]”, the “gcPBM binding intensity (ln)” value was determined as 9.76.

In the case of “TATAATAATACTTATTGTACGATTAGCTTAATTCGT [XGTACX_site15]”, the “gcPBM binding intensity (ln)” value came to 9.51.

Turning to “TATATAAATAGATACACACATACATACATACATACA [CACACA_site260]”, the “gcPBM binding intensity (ln)” value came to 10.6.

Consider “ATGGAATTTTTAGAATATGGATAATGTTACTTAAGT [CACACA_negctrl_site494]”, for which the “gcPBM binding intensity (ln)” value stood at 9.49.

As for “AAAAACCATGGGCACACACACATAATATATAATATA [CACACA_site1425]”, the “gcPBM binding intensity (ln)” value stood at 10.4.

Turning to “TATATCGTTAATTATACACACATAAAATTAAACTTT [CACACA_site1274]”, the “gcPBM binding intensity (ln)” value came to 9.65.

Consider “GTTATATATATATATATATATATATATATTTTTTTT [GTGCAC_negctrl_site597]”, for which the “gcPBM binding intensity (ln)” value is 9.68.

For “AGTGTTAAAAATGAGGGTACATATAAAATACAGTTC [XGTACX_site457]”, the “gcPBM binding intensity (ln)” value was 9.8.

In the case of “ACAGGATTGGTTCAAACACACATATTATATGACTAT [CACACA_site4536]”, the “gcPBM binding intensity (ln)” value was found to be 9.81.

For “TAATCATTTTAGCTTACACACAAAATTTGGTTATAA [CACACA_site5604]”, the “gcPBM binding intensity (ln)” value stood at 9.67.

For the sequence “TATTTTAATTAATATACACACGCTTATATATATATA [CACACA_site7909]”, the “gcPBM binding intensity (ln)” value came to 9.77.

Regarding “TTTCTTTTTTTTTTTTGTACATATTTTAATTATTTT [XGTACX_site8676]”, the “gcPBM binding intensity (ln)” value is 9.77.

Regarding “TATTATATATATAACTGTACGTTTATAATATAAAAA [XGTACX_site3778]”, the “gcPBM binding intensity (ln)” value came out at 9.47.
